Test results: PubChem BioAssay AID1508624 (National Center for Advancing Translational Sciences (NCATS), 2021)
Among all 48,000 compounds or so, about 120 (0.25%) were called active. Roughly 4% stayed inconclusive and do not appear here. Calls follow the shape of the dose curve; as a rule, active = well fitted activation curve with a large enough effect; inconclusive = small, poorly fitted or top-dose-only effect, or another doubt; inactive = no such curve, though single readings can be large or run the other way. The list shows a part of the results.

Assay: Primary qHTS for Identification of Small Molecule Activators of Huntingtin-Antisense Promoter Activity; also: nearly all actives have a fitted effect of over 55% in size
Conditions: HEK293 HTT-AS promoter firefly luciferase reporter, 24 h; series mostly up to 57.5 µM; activity change, positive = activation: at the top concentration
In short: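 HEK293 luciferase promoter-reporter cells (2,500/well) plated 24 h, then compounds added at up to 57.5 uM final for 24 h at 37 °C. Firefly luminescence by Dual-Glo, normalized to vehicle (0%) and zero RLU (-100%).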

Activity change, positive = activation, inactive:
CO[C@@H]1[C@H](N(C)C(=O)c2ccccc2)C[C@H]2O[C@]1(C)n1c3ccccc3c3c4c(c5c6ccccc6n2c5c31)C(=O)NC4 -30.8%, CN1CCN(C(CNC(=O)C(=O)Nc2ccc(F)cc2F)c2ccc3c(c2)OCO3)CC1 (configuration not stated) -1.56%, CCOc1ccc(CCNC(=O)Cn2nnc(-c3ccc(OC)c(OC)c3)n2)cc1OCC -27%, CCOc1cc(CNCCSc2nnnn2-c2ccccc2)cc(Cl)c1OC -38.2%, CC(C)Oc1ccc(CNS(=O)(=O)c2cnc(N)nc2)cc1 -8.08%, CC(C)Cn1cnc2c1c(=O)n(C)c(=O)n2C -11.5%, COc1cc(NC(=O)c2nnn(CC(=O)Nc3ccccc3)c2N)cc(OC)c1 -22.4%, CC(C)(C#N)c1cc(Cn2cncn2)cc(C(C)(C)C#N)c1, O=C(NC1CCCCC1)c1ccc2c(c1)N(Cc1ccccc1)C(=O)c1ccccc1S2 -6.83%, O=C(CN1C(=O)C2(SCC(=O)N2c2ccccc2)c2ccccc21)NCc1ccccc1Cl (configuration not stated) -24.4%, CCCc1nn2c(=O)cc(COC(=O)c3ccc(NC(=O)C(C)Oc4ccccc4)cc3)nc2s1 (configuration not stated) -9.73%, CCCCNc1nc(Oc2ccc(=O)n(C)n2)nc(N(C)C)n1 1.08%, CSc1nc(-c2ccc(F)cc2)nc2c1Cc1c(CO)cnc(C)c1O2 -7.04%, Cc1ccc(-c2nc3c4ccccc4n(Cc4cccc(Cl)c4)c(=O)n3n2)cc1 -1.88%, CCN1CCN(CCCNC(=O)Cn2nc(C)n3c(cc4cc(C)ccc43)c2=O)CC1 -3.09%, CCc1ccc(S(=O)(=O)c2nnn3c2nc(N2CCCC(C)C2)c2cc(Cl)ccc23)cc1 (configuration not stated) -1.51%, COc1ccc(OC)c(CNC(=O)C2COc3ccccc3C2)c1 (configuration not stated) -7.67%, CCOC(=O)Cc1ccc(NC(=O)N2CC(CC)Oc3ccccc32)cc1 (configuration not stated) -15.7%, COc1ccc(Br)cc1CNC(=O)c1ccc2c(c1)nc1n2CCCCC1 -14.1%, Cc1cccc(CN2C(=O)c3ccccc3S(=O)(=O)c3ccc(C(=O)N4CCN(c5cc(C)ccc5C)CC4)cc32)c1 -16%, CCc1ccc(-c2cc3c(N4CCN(c5ccccc5)CC4)nccn3n2)cc1 11.7%, COc1ccc(N2CCN(C(=O)CCn3cnc4onc(-c5ccc(F)cc5)c4c3=O)CC2)cc1 -42.3%, CC(=O)N/N=C/c1ccc([N+](=O)[O-])o1 3.68%, Cc1cccc(-c2nc3nc(C)cc(N4CCN(c5ccccc5)CC4)n3n2)c1 -6.14%, COc1ccc(NC(=O)N2CCN(c3cc(-c4noc(C)n4)ccc3C)CC2)c(OC)c1 -16.1%, CC(C)(C)C1CCc2c(sc(NC(=O)c3ccncc3)c2C(=O)Nc2ccccc2Cl)C1 (configuration not stated) -8.19%, COc1cccc(N2CCN(Cc3nnc(-c4ccc5c(c4)OCO5)o3)CC2)c1 -8.64%, COc1ccc(NS(=O)(=O)c2ccc(NS(=O)(=O)c3ccc4c(c3)OCCO4)cc2)cc1 -29.2%, Cc1c(C(=O)NCc2ccccc2Cl)sc2nc3n(c(=O)c12)CCC3 14.4%, COc1ccc(N(CC(=O)NCc2ccc(C)cc2)S(=O)(=O)c2c(C)[nH]c(=O)[nH]c2=O)cc1 11.3% [at 11.5 µM, percent change from vehicle, -100% = no light], Cc1cc(C)cc(N2CCn3c2nc2c3c(=O)n(CCc3ccccc3)c(=O)n2C)c1 -4.14%, CCCCC(=O)Nc1ccc(C(=O)OCc2cc(=O)n3nc(C4CC4)sc3n2)cc1 2.03%, COC(=O)C1=C(c2ccccc2)c2ccccc2S(=O)(=O)N1CC(=O)Nc1ccccc1C(F)(F)F -22.1%, COc1ccc(S(=O)(=O)Cc2ccc(C(=O)NC3CCCCC3)o2)cc1 -34%, C=CCN1CCc2nc(N)sc2CC1 -1.39%, Cc1cccc(N2CCN(c3ccc(C(=O)O)cc3NC(=O)c3ccccc3F)CC2C)c1 (configuration not stated) -19.7%, Cn1c(=O)n(CCc2ccccc2)c(=O)c2c1nc1n2CCN1c1ccc(Cl)cc1 -6.69%, CC(C(=O)Nc1ccccc1C(F)(F)F)n1nc(-c2ccccc2)c2c(c1=O)CCCC2 (configuration not stated) -27.9%, CC(C)CC(=O)Nc1c(C(=O)N2CCN(c3ccccc3F)CC2)oc2ccccc12 -14.8%, Cc1cc(C)c2c(-n3cccc3)c(C(=O)NCCc3ccccc3)sc2n1 -4.36%, CCN(CC)c1ccc(C(=O)NCc2ccc3c(c2)CCN3C(C)=O)cc1 10.3%, CC(=O)c1ccc(N2CCN(C(=O)Nc3cccc(F)c3)CC2)cc1 -21.3%, O=C(Nc1nonc1-c1ccc(Br)cc1)c1ccco1 -20%, Cc1nc2ccccc2n1CCc1nc2c3ccccc3nc(SCC(=O)Nc3ccc(C(C)C)cc3)n2n1 -62.9%, COc1cccc(Cn2cc(S(=O)(=O)c3ccc(C)cc3)c(=O)c3cc4c(cc32)OCO4)c1 19.1%, COc1ccc(NC(=O)c2ccco2)cc1NC(=O)COc1ccc(C)cc1C -26.1%, Cc1ccc(NC(=O)Cc2ccc(NC(=O)N3CCCCc4ccccc43)cc2)cc1 -9.15%, CCCc1ccc(NC(=O)C2CCN(c3cnccn3)CC2)cc1 -25.2%, Cc1cc(Cl)ccc1NC(=O)CN1C(=O)C(=O)c2ccccc21 -11.6%, CSc1cccc(NC(=O)Cn2nnc(C(=O)NCCc3ccccc3)c2N)c1 -6.74%, CCN1CCN(C(c2ccccc2)c2c(O)cc(C)n(CCOC)c2=O)CC1 (configuration not stated) -6.12%, Cc1ccc(Cn2c(C(=O)O)c(CNCCc3ccco3)c3ccc(C)cc32)cc1 -18.7%, Cc1cc(C)c(C(=O)Nc2ccccc2)c(SCC(=O)Nc2ccc(Br)cc2C)n1 -23.1%, Cc1c[nH]c2ccccc12 -8.2%, COc1ccc(-n2c(=O)c3ccc(C(=O)NCc4ccc(C)cc4)cc3n(CC(=O)Nc3ccc(C)cc3)c2=O)cc1 -35.7%, CC(=O)c1ccc(N2CCN(C3C(=O)c4ccccc4N3C(C)=O)CC2)cc1 (configuration not stated) -11.3%, O=S(=O)(c1ccc(Br)cc1)c1nnn2c1nc(NCc1cccs1)c1sccc12 -13.1%, NC(=O)c1cccc2cn(-c3ccc([C@@H]4CCCNC4)cc3)nc12 -1.33%, COC(=O)[C@]12CCC(C)(C)C[C@@H]1[C@@H]1C(=O)C=C3[C@@]4(C)C=C(C#N)C(=O)C(C)(C)[C@@H]4CC[C@@]3(C)[C@]1(C)CC2 -87.3%, COCCCNC(=O)C1CCN(c2cc(C)nc3c(-c4ccc(OC)c(OC)c4)c(C)nn23)CC1 -6.54%, CCOc1cc(-c2nc(-c3ccc(-c4ccc(OC)cc4)nc3OC)no2)cc(OCC)c1OCC -4.23%, COc1ccc(Cl)cc1NC(=O)c1nn(C)c2c1CS(=O)(=O)c1ccccc1-2 -3.51%, COc1ccccc1NC(=O)CCn1c(=O)oc2cc(Cl)ccc21 -1.98%, COc1ccc(-n2cc(C(=O)NCc3cccc(OC)c3)c3ccccc3c2=O)cc1 -4.19%, CC(C)Oc1ccc(CNC(=O)CCCn2c(=O)c3cccn3c3cccnc32)cc1 -22.9%, O=C(c1ccccc1)C(O)c1ccccc1 (configuration not stated) 2.71%, COc1cccc(-c2nnc3n(Cc4ccccc4Cl)c(=O)c4ccccc4n23)c1O -59.1%, O=C(NCc1ccc2c(c1)CCN2C(=O)c1ccncc1)c1ccc(Cl)cc1 -9.33%, Cc1ccc2c(=O)c(C(=O)c3ccccc3)cn(CC(=O)Nc3ccccc3)c2n1 -7.79%, Cc1c(Cl)cccc1NC(=O)CN1C(=O)CCn2nc(-c3cccn3C)cc21 -8.36%, COCCN(CCOC)C(=O)c1cc2c(=O)n3ccccc3nc2n1C -10.9%, CCOC(=O)C(Cc1c[nH]c2ccccc12)NC(=O)COc1ccc(Cl)cc1 (configuration not stated) -9.99%, CCn1c(NCc2cccc(Cl)c2)nc2ccccc21 -10.5%, COc1cc(-c2nc3ccc(C)cn3c2Nc2ccc(Cl)cc2)ccc1O -25.3%, O=C(CSc1nc(-c2ccccc2)cn1-c1ccccc1)Nc1ccccc1 -8.47%, COc1cccc(C(=O)NC2=NC(c3ccc(N(C)C)cc3)CC(=O)N2)c1 (configuration not stated) 2.98%, O=C(NCCCN1CCCCC1)c1cc(Sc2ccc(Cl)cc2)nc2ccccc12 -26.4%, C[C@H]1O[C@@H](n2cc(F)c(=O)[nH]c2=O)[C@H](O)[C@H]1O -2.28%, COc1ccc(-c2cc(C(=O)Oc3ccc(C)c(C)c3)c3ccccc3n2)cc1 2.79%, Cc1cccn2c(=O)c3cc(C(=O)NCc4ccccc4Cl)sc3nc12 -6.81%, CCC(C)NC(=O)c1c(-c2ccccc2)c(-c2ccccc2)nn(C)c1=O (configuration not stated) -6.5%, Cc1ccc(C(=O)NC2(C(F)(F)F)C(=O)Nc3c2c(=O)[nH]c(=O)n3CCc2ccccc2)cc1 (configuration not stated) -9.53%, CCOC(=O)c1cc(-c2ccccc2)n(CCCC(=O)Nc2ccc(C)cc2C)c1C -19%, Cc1c(C(=O)N2CCC(C(=O)Nc3ccc(F)cc3)CC2)sc2nc[nH]c(=O)c12 -14.4%, Cc1noc2ncnc(NCc3cccc(Cl)c3)c12 -39.3%, Cc1cccc(-n2c3nc(=O)n(C)c(=O)c-3cc3ccc(Cl)cc32)c1C -10.5%, Oc1cccc(Nc2ncnc3sc4c(c23)CCCC4)c1 -35.3%, CS(=O)(=O)N1CCc2cc(C(=O)NCc3ccccc3)ccc21 -9.04%, CC(C)(C)C(=O)N1CCN(c2nc3c(F)cccc3s2)CC1 22.7%, CCOc1ccc(-n2c(SCC(=O)N3CCCCC3)nc3c([nH]c4ccccc43)c2=O)cc1 -7.73%, O=C(CSc1nc(=O)n(Cc2ccco2)c2c1CCC2)NCc1ccc(F)cc1 -4.72%, COc1cc2ncnc(Nc3ccc(F)c(Cl)c3)c2cc1NC(=O)C=CCN1CCCCC1 -20.6%, CC1=C(C(=O)Nc2ccccc2C)C(c2ccccn2)n2nc(SCc3ccccc3F)nc2N1 (configuration not stated) -13.9%, O=C(CCc1ccc(O)cc1)c1c(O)cc(O)cc1O -68%, COc1ccc2nc(NC(=O)c3ccc(S(=O)(=O)N4CCCC(C)C4)cc3)sc2c1 (configuration not stated) -17.2%, CCc1ccc(NC(=O)CSc2nc(=O)n(Cc3ccco3)c3c2CCC3)cc1 -31.7%, Cc1nc2nc(NC(=O)c3ccc(Cl)cc3)[nH]n2c(=O)c1Cc1ccccc1 -1.89%
